Patent US4735651A, “Novel phytotoxic and plant growth regulating oligopeptide” (The United States of America as represented by the …, priority 1986, dated 1988)
“Also recorded” adds a separate entry of the source. Not every detail of the peptide structures is certain; ends, links or a residue may be inferred.

Columns and labels:
[1] = system: lettuce (Lactuca sativa) cv. Northern Lakes seedlings; experiment: Root growth bioassay of germinating lettuce seedlings; format: in vivo; conditions: lettuce seedling assay (L), 10^-6 M
Protocol: (§1) Applicants' preferred embodiments of this invention comprises the incorporation of structural peptide backbone changes which increase conformational constraint, and vary the orientation of amino acid side chains when constrasted with naturally occurring amino acid sequences. […] Rooth growth inhibition/promotion was measured in germinating lettuce (Lactuca sativa) cv. Northern Lakes and curly cress (Lepidium sativum) seedling assays nominally used for screening herbicidal compounds and in a wheat coleoptile assay used for generally screening biological activity. Only compounds exerting measurable biological activities at 1×10^-6 M in concentration in the lettuce and cress assays and 1×10^-3 M in the wheat coleoptile are claimed.
Aliquots of tested oligopeptide compounds of the type Formulas I-V were dissolved in ethyl acetate. One milliliter aliquots of the samples were pipetted onto a […] filter disk, dried, and placed in a Petri dish. One mL of distilled water was pipetted onto the filter paper and 15 lettuce seeds were uniformly distributed on the surface of the filter paper and allowed to imbibe in the dark at 20° to 25° C. for 24 h. The samples were subsequently placed in a growth chamber under continuous light at 28° C. for 72 h, and the root lengths were measured. […]

[2] = system: curly cress (Lepidium sativum) seedlings; experiment: Root growth bioassay of germinating curly cress seedlings; format: in vivo; conditions: curly cress seedling assay (C), 10^-6 M
Protocol: as §1
(§2) Aliquots of tested oligopeptide compounds of the type Formulas I-V were dissolved in ethyl acetate. One milliliter aliquots of the samples were pipetted onto a […] filter disk, dried, and placed in a Petri dish. One mL of distilled water was pipetted onto the filter paper and 15 lettuce seeds were uniformly distributed on the surface of the filter paper and allowed to imbibe in the dark at 20° to 25° C. for 24 h. The samples were subsequently placed in a growth chamber under continuous light at 28° C. for 72 h, and the root lengths were measured.
(§3) During the course of these assays, visual assessment of seedling vigor was made in addition to root length measurements. […] Assessment of phytotoxicity was not confined to assessment of the root, but included any organ of the assay species.

[3] = system: detached wheat coleoptile; experiment: Wheat coleoptile assay; conditions: for Growth Regulating Inhibition, coleoptile length: 10^-3 M; for Growth Regulating Inhibition, coleoptile length / Growth Regulating Promotion, coleoptile length: control 17.1; for Growth Regulating Promotion, coleoptile length: 10^-4 M
[4] = system: lettuce and cress seedlings; experiment: Lettuce and curly cress seedling assays, visual assessment and overall activity (species not split); format: in vivo, Lactuca sativa; Lepidium sativum; set-up: key to Phytotoxicity: +: designated as phytotoxic if they exhibited either chlorosis and/or necrosis of tissues when compared with untreated control plants; conditions: for Phytotoxicity: visual assessment of chlorosis and/or necrosis, any organ
Protocol: as §1, §2, §3

Compound	% Root Growth Promotion [1]	% Root Growth Promotion [2] [%]	Wheat coleoptile growth regulating activity (in words) [3]	Growth Regulating Inhibition, coleoptile length [3] [millimeter × 3]	Growth Regulating Promotion, coleoptile length [3] [millimeter × 3]	Phytotoxicity [4]	Root growth inhibitor or promoter activity (in words) ([4]; 10^-6 M)
CCN(C(=O)[C@H](CC(C)C)NC(=O)OC(C)(C)C)/C(=C\c1ccccc1)C(=O)NCC(=O)OC [Compound 6, Boc-Leu-N(C2 H5)Δ^z Phe-Gly-OMe]	40-50%	10	growth inhibition at 10^-3 M and slight promotion at 10^-4 M	13.25	17.8	+	–
CCN(C(=O)[C@@H](CC(C)C)NC(=O)OC(C)(C)C)/C(=C\c1ccccc1)C(=O)NCC(=O)OC [Compound 7, Boc-D-Leu-N(C2 H5)Δ^z Phe-Gly-OMe]	–	–	–	14.9	–	+	–
COC(=O)CNC(=O)/C(=C/c1ccccc1)N(C)C(=O)[C@H](CC(C)C)NC(=O)OC(C)(C)C [Compound 8, Boc-Leu-N(CH3)Δ^z Phe-Gly-OMe]	–	–	–	14	–	+	–
COC(=O)CNC(=O)/C(=C/c1ccccc1)N(C)C(=O)C(C)(C)NC(=O)OC(C)(C)C [Compound 9, Boc-Aib-N(CH3)Δ^z Phe-Gly-OMe]	40%	90	–	14	–	+	–
COC(=O)CNC(=O)/C(=C/c1ccccc1)NC(=O)[C@@H](C)NC(=O)OC(C)(C)C [Compound 10, Boc-D-Ala-Δ^z Phe-Gly-OMe]	–	–	no activity; also recorded: NOT ACTIVE	–	–	+	–
CCN(C(=O)[C@@H](NC(=O)OC(C)(C)C)C(C)C)/C(=C\c1ccccc1)C(=O)NCC(=O)OC [Compound 11, Boc-Val-N(C2 H5)Δ^z Phe-Gly-OMe]	–	40	growth inhibition at 10^-3 M and slight promotion at 10^-4 M	13.2	17.7	+	–
COC(=O)CNC(=O)/C(=C/c1ccccc1)N(C)C(=O)[C@@H](NC(=O)OC(C)(C)C)C(C)C [Compound 12, Boc-Val-N(CH3)Δ^z Phe-Gly-OMe]	–	–	–	12	–	+	–
COC(=O)CNC(=O)/C(=C/c1ccccc1)NC(=O)C(C)(C)NC(=O)OC(C)(C)C [Compound 14, Boc-Aib-Δ^z Phe-Gly-OMe]	–	–	–	–	–	–	Not active as a inhibitor; also recorded: no effect; also recorded: no activity as an inhibitor or a promoter
COC(=O)CNC(=O)/C(=C/c1ccccc1)N(C)C(=O)[C@H](CC(C)C)NC(=O)OCC1c2ccccc2-c2ccccc21 [Compound 15, FMOC-Leu-N(CH3)Δ^z -Phe-Gly-Ome]	–	–	–	12.0	–	–	–
